# Laboratory results from the supplement of paper PMC11417369.
# This is one part of the list.
# Test system: PF3D7_0420300 AP2 domain 1 (GST-tagged)
# Assay: gcPBM binding intensity (ln(normalized median fluorescence intensity)); higher = stronger DNA binding
# Procedure, shortened: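 Each value is the highest Masliner-normalised natural-log median intensity across replicate spots of either orientation of a probe. The probes were primer-extended double-stranded 36-bp intergenic genomic sequences on an Agilent 4 × 180k array, alongside negative controls, exposed for 1 h to GST-tagged P. falciparum DNA-binding domains expressed in E. coli. Bound protein was picked up with Alexa488 anti-GST antibody and scanned at 488 nm.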
row,Sequence,gcPBM binding intensity (ln)
1,TATGTCGACATTTAAAGTACAAAAAAAAAAAAAAAA [XGTACX_site8985],8.85
2,TATATTAAAATATTCACACACTAACGTAAATCATTG [CACACA_site5520],9.41
3,ATTTATTTAAACAAATCACACACAAATATATATACA [CACACA_site8622],9.68
4,CATACATAGATATATACACACATACCTATAAATACA [CACACA_site6513],9.78
5,TATATATGTGTTATATACCCTTTTTTATATATTAAT [XGTACX_negctrl_site313],9.53
6,TAAAAATCCACAAGCACACAAATGTACATATATATA [CACACA_site2462],9.59
7,TTTCAAAATGTGTAAAATAAAAATAATATCATTACA [TGCATGCA_negctrl_site521],9.08
8,ATGTGATATAAGTACACACACATATGTATATAGAAT [CACACA_site1823],9.81
9,TTTTGTTTTGTTTTGTTTTGTTTTGTTTTATTTTAT [GTGCAC_negctrl_site383],9.57
10,AATGTATATATGTAATGTACATATGTAATGTATATA [XGTACX_site6509],9.42
11,AATATAGATATAACCACACACATACATCTAATTCTA [CACACA_site1760],9.76
12,GAAAAGAACAAGAGCATGCACTTAATAAGAATAATA,9.21
13,TGTTTCTTATTTTTTTCACACACTAAACATTTCAAA [CACACA_site2218],9.62
14,AATAAAAAAAGTTTTTTTTTTTTTTAAACAATAGAC [CACACA_negctrl_site1061],9.01
15,AAAAATTTAATGAAATGTACATATATGTTATTAATA [XGTACX_site6091],9.16
16,ATAATAATAATAAAAAGTACATTTAATTATATAGAA [XGTACX_site7742],9.41
17,AATAACCACCAACACACACACATATATATATATATA [CACACA_site3540],9.89
18,AAGAATGTTAATAGTACACACAATTATTATATAAAT [CACACA_site3739],9.61
19,TATATGTTTTAAAAGTGTACTTTAGTTTCAATTTTT [XGTACX_site4269],9.18
20,TAAATGCACATATACACACACCCAATTTTAAGTTTT [CACACA_site7428],9.86
21,ACATCAAGAATTATTAAGAATACGGATAGATAAAAT [GTGCAC_negctrl_site261],9.4
22,ATACATATTACATGTTGTACTCCAACAAAAATGCCC [XGTACX_site3201],9.29
23,TTAATTTCATTTTCTACACACCTATCCTTTTTTTTT [CACACA_site772],9.57

row,Sequence,gcPBM binding intensity (ln)
1,ATATATATATAATCAAGTACACAGTAATAAAAAGAA [XGTACX_site1070],9.78
2,AATAATAACTGTAGGTGTACGTAAAAAAAAAATTAT [XGTACX_site3133],9.43
3,ATTGTGTTCATCAGCACACACAACATCATGCAATAA [CACACA_site6960],9.46
4,TTTTTTTTTTTTTGTTGTACAATACTTAATCATTAT [XGTACX_site3422],9.04
5,TTTTTTTTTTTTGAAACATGCATTGTTTTATTCTTA [TGCATGCA_site15],9.02
6,TCTATACCTATTCTTACACACATATGTATATATATA [CACACA_site563],9.79
7,TATATATATGTATATGTGCACAGTTTTCTTATTAAA [GTGCAC_site9990],9.24
8,TGGGCACCCATATACACACACAAATACAATGATAAA [CACACA_site4762],9.7
9,AAAAAAAAAAAAATGTGTACATACATATATTTATAT [XGTACX_site3076],9.19
10,GGAAAAGGTATCCGTTCACACATAAATGGATACCAT [CACACA_site5072],9.13
11,TCTATATAGATTTGCACACATAAAAATGCTTATATA [CACACA_site2389],9.27
12,ATTACATATTGATAAGTGCAAGTGTGAGAAATGTTA,9.32
13,AATATATTATATATATGTACATATGTGTATACATTT [XGTACX_site937],9.24
14,TTTTATTTATTTTATTGTACATATATAAAACTATGA [XGTACX_site3476],9.12
15,CAATCAAATGGACACACACACACCTAAACATAAAAG [CACACA_site5524],10.2
16,ATTAAAAAATTACAAGCATGCTTGTTAAAATTTTTT [TGCATGCA_site941],8.85
17,CTTTTTTTTTTAAATTGTACAAATGTGATGTAATAG [XGTACX_site3219],8.98
18,TAAATATATATTATATGTACTTATATATATATATAT [XGTACX_site4448],9.13
19,TTTTTCATTTTTAAAATAATTATAATATTATACATA [XGTACX_negctrl_site43],8.95
20,TAAATCAGCCATAACACACATACATATATACATAAA [CACACA_site396],9.6
21,AGCAAATAAATAAATAAATAAATAAATATATATATA [TGCATGCA_negctrl_site40],9.23
22,ATAATTAACAAATACACACACACACGCCCACAAAAA [CACACA_site6389],10.2
23,ATATATATGTGTAAAAGTACATATATTTTGAAATAT [XGTACX_site4024],9.3

row,Sequence,gcPBM binding intensity (ln)
1,TTTTAATAAAAGCCCATGCACACCTTAGAAAGTTTT [CACACA_site346],9.06
2,GGAAACAAAAAATATATACACACTAATCATAAAAAA [CACACA_site7890],9.52
3,ATTAATATATTATCATGTACACAAAAATAATTTTAT [XGTACX_site7257],9.13
4,TAAAAATATATATGATTGCACTTAGGACAATATATA,9.14
5,TATTCTCTCTTATGAACACACATTTTTATTTTCAAA [CACACA_site7554],9.43
6,AAGAAAAATATATAAATAAATAAATATATAAATATA [CACACA_negctrl_site836],9.12
7,AACTTGTATTTATACACACACACACTGTCTTTTTTT [CACACA_site7009],10.3
8,TAAAATTTTATAAAGGAACACACATTTTTTTTTTTT [CACACA_site8740],9.2
9,TATTTTAATATGTATACATGCATACCTACTCATACA [TGCATGCA_site779],9.05
10,TAGACAAAATATAATGCACACTATTATTTTTATTTA [CACACA_site5508],9.18
11,AAAAAAGTTGTATTTGCACACATAAAAAAAAGATAT [CACACA_site3839],9.53
12,AATTTAAAAATGGACACACACAAAAAATAATACTTA [CACACA_site250],9.89
13,GTATATTATATTGGGTGTACCATATATAATATAATC [XGTACX_site8579],9.19
14,AAAAATTAACAAAAGGTGCAATTTATTTATTAACGG,9.26
15,TTATAAATAAAAAATACACACATATATATATATATA [CACACA_site207],9.3
16,ACTAAACTTTTATGTACACACATATAACATTAATTT [CACACA_site5276],9.62
17,TACAAAATGGGGAACACACACATATATATATATATA [CACACA_site3844],9.54
18,TTGGTACCTATAGATACACACATATATACCTATATA [CACACA_site5812],9.4
19,TACGTAAAAATAGGACGTACTTATTTAGAAACCATA [XGTACX_site2498],9.17
20,AAATATTATAGCACCACACACTTATTTTATTTATAT [CACACA_site7133],9.71
21,AGAAAGAAAGAATACACACACACATATATAAATATC [CACACA_site7716],10.2
22,ATTATCAATATGAAGGTGCATTTAAATAATATTTAC,9.18
23,TATATTCTTTATAGGTGTACTTAATAAATAAAAAAT [XGTACX_site5378],9.02

row,Sequence,gcPBM binding intensity (ln)
1,TATATATATGTGTTTACACACAATAATGAATTAAAA [CACACA_site4659],9.4
2,TATGAACATAAATTTGCACACTGGATATAATATATA [CACACA_site2155],9.36
3,TATCTAGTTACTCCTTGTACATAATAAATGATTTTT [XGTACX_site5674],9.23
4,AAAAAAAAAAAATGTGTGCACATTATTTCAACTTAA,9.32
5,TATATATATAATATTGCACACAAAATTAAAAGTAAA [CACACA_site7889],9.47
6,TATTTTATCTATTTGTGTACTTATATTTATGCAAAA [XGTACX_site1499],9.29
7,AAATTATTAAAAAAAAGTACATATATATATATATAT [XGTACX_site8313],8.93
8,ATAAATAATATATATACACACATATCTATACATATT [CACACA_site487],9.54
9,ATAATACACGATTATTTTCCCTTTATGTAAATATAT [CACACA_negctrl_site1107],9.3
10,ATCATCTATGTTATTACACACGTTATGTTATTATAA [CACACA_site5502],9.6
11,TTTAGATAATTCATTACACACATGTATATTTATATA [CACACA_site7602],9.46
12,TTTTTTTTTTTTTTATGTACGAAAGAAAAGCACATA [XGTACX_site8261],8.75
13,TAACGAATTTAAATTTGTACATATATAAATATATAA [XGTACX_site2168],9.02
14,TATGAAAAAAAAAATACACACACGAGTTGTTATACA [CACACA_site3188],9.48
15,AATGAAATATGGATGGGTACACATTTGATTTTATTA [XGTACX_site6155],9.23
16,ATATATATAAACATATGTACACATATATATAATACA [XGTACX_site1848],9.32
17,TGTATGTATAGAAACACACATACATATATATAATAT [CACACA_site1405],9.35
18,AAAAAAAATTAATTAGTGCAAAATATATACAAAATA [GTGCAC_site9762],9.41
19,TAAGAAAATATTTATGTATGCATGTCCTAATATTTC [TGCATGCA_site295],9.11
20,ATATAAAATATTAGTAGTACCATTAACAGTATTGTT [XGTACX_site5912],9.4
21,ATTAAGATGTATATATGTACATATTACATACATATA [XGTACX_site8657],9.12
